Measured values as given in the supplement of paper PMC10126150.
Sequences with one replicate were seen in a single cluster, so their values are uncertain.

What follows are sequences tested on ATP (assay: switch fluorescence ratio, 500 uM ATP over buffer (Cy3 cluster intensity, sum of 5 cycles each) (fold (ratio)); higher = stronger signal-on switching upon ATP binding; sequences stand for … in TCGTCGGCAGCGTCAGATGTGTATAAGAGACAGTTTTTTTTTTTTTTTTTTTTTTTTT…TC). Details: aptamer strand: ATP DNA aptamer (quencher-CACCTGGGGGAGTATTGCGGAGGAAGG + anchor), 100 nM annealed; ATP concentration: 500 uM; one replicate.
Summary of the method: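 The quencher-labelled ATP aptamer, at 100 nM, was annealed to Cy3-labelled switching-strand clusters on a modified Illumina MiSeq flow-cell. The clusters were imaged in selection buffer, then after 15 min with 500 uM ATP at 22 °C, and this buffer/ATP cycle ran five times with NaOH stripping and re-annealing between runs. Per-cluster fluorescence ratios, summed target-cycle over summed buffer-cycle Cy3 intensity, were averaged per switch-domain sequence. Clusters outside 100-1000 RFU were excluded.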
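Also: ATP exposure 15 min at 22 °C before imaging.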

Row | Sequence | switch fluorescence ratio
1 | GAAAAGGAAA | 0.972
2 | GAAAAGGACT | 1.01
3 | GAAACATCAA | 1.06
4 | GAAACCAGTT | 1.07
5 | GAAACTCCCC | 1.99
6 | GAAACTTAAT | 1.03
7 | GAAAGAGTGT | 1.02
8 | GAAAGATGGT | 0.999
9 | GAAAGCCTAG | 0.996
10 | GAAAGGAAGT | 1.01
11 | GAAAGGAGAG | 0.984
12 | GAAAGGCCA | 1.07
13 | GAAAGGGATC | 1.07
14 | GAAAGGGTCT | 1.01
15 | GAAAGGGTGA | 1.03
16 | GAAATAACGT | 1.02
17 | GAAATATTGC | 1.03
18 | GAAATATTGG | 0.997
19 | GAAATGAGCG | 1.02
20 | GAAATGCAAA | 0.974
21 | GAAATGCAGC | 1.03
22 | GAAATGTGT | 0.954
23 | GAAATTACTC | 1.06
24 | GAAATTTGTC | 1.06
25 | GAACAACCAG | 1.04

Row | Sequence | switch fluorescence ratio
26 | GAACAACGA | 0.978
27 | GAACAATCGA | 1
28 | GAACACAGG | 1.09
29 | GAACACGGGG | 0.934
30 | GAACAGTATA | 1.02
31 | GAACATAGGG | 0.988
32 | GAACATGCCT | 1.08
33 | GAACATTCTT | 1.01
34 | GAACCAATTT | 1.02
35 | GAACCAGTTC | 0.988
36 | GAACCATGGT | 1.05
37 | GAACCCCCCA | 1.03
38 | GAACCCCTAT | 1.02
39 | GAACCCGTAC | 1.46
40 | GAACCGAGGC | 0.982
41 | GAACCGGGA | 1.06
42 | GAACCTGCAT | 1.22
43 | GAACGAGGGC | 0.979
44 | GAACGCGGTG | 1.02
45 | GAACGGAAG | 1.01
46 | GAACGGCATA | 1.19
47 | GAACGGGAG | 1
48 | GAACGTAGTA | 0.934
49 | GAACGTGTTG | 0.993
50 | GAACTAAACT | 1.01

Row | Sequence | switch fluorescence ratio
51 | GAACTATAGG | 1.05
52 | GAACTCCGAG | 1.43
53 | GAACTCCTGG | 1.02
54 | GAACTGACGG | 1.22
55 | GAACTGGATC | 1.06
56 | GAACTTAAAC | 1.09
57 | GAACTTCCAT | 1
58 | GAAGAAACG | 0.98
59 | GAAGACCCGC | 1.07
60 | GAAGAGCGA | 1.01
61 | GAAGATAAAT | 0.974
62 | GAAGCATTGG | 1.72
63 | GAAGCCCTCT | 0.992
64 | GAAGCCCTTA | 0.992
65 | GAAGGAAATT | 0.944
66 | GAAGGACTAT | 0.992
67 | GAAGGATGTA | 1.01
68 | GAAGGCAGAG | 1.03
69 | GAAGGCCCTA | 1
70 | GAAGGGAAAA | 0.993
71 | GAAGGGCTAT | 0.978
72 | GAAGGGGGTC | 1.02
73 | GAAGGTAGTA | 0.995
74 | GAAGGTGACG | 1.09
75 | GAAGTACGAA | 1.06

Row | Sequence | switch fluorescence ratio
76 | GAAGTATGA | 1.01
77 | GAAGTATTAC | 1.77
78 | GAAGTATTGC | 1.02
79 | GAAGTTCCGT | 1.06
80 | GAAGTTGATG | 0.956
81 | GAAGTTGCGT | 0.959
82 | GAAGTTGGGG | 0.951
83 | GAATAATTCG | 1.04
84 | GAATACGGGT | 1.02
85 | GAATACGTGG | 0.952
86 | GAATAGGTGT | 1.07
87 | GAATAGTAGG | 0.966
88 | GAATATTAGC | 0.996
89 | GAATCAAACA | 0.99
90 | GAATCAAGTG | 0.933
91 | GAATCCAACA | 0.974
92 | GAATCGACC | 1.15
93 | GAATCGAGGC | 0.986
94 | GAATCGGGCC | 0.977
95 | GAATCGGGTC | 0.935
96 | GAATGACCAG | 1.01
97 | GAATGACTTG | 1
98 | GAATGATGTT | 0.999
99 | GAATGATTGG | 0.979
100 | GAATGGAGGG | 0.996
